Results from PubChem BioAssay AID360 (National Center for Advancing Translational Sciences (NCATS), 2006).
Hit rate of the full screen: of about 48,000 compounds, about 550 (1.1%) were called active. Roughly 4% stayed inconclusive and do not appear here. Cut-off read from the data, not from the text of the source: active = potency below about 15 µM; inconclusive = mostly about 16 µM to 33 µM; inactive = weaker than that. Some of the results follow.

Target: Lysosomal acid glucosylceramidase (Homo sapiens) (UniProt P04062)
Test: Glucocerebrosidase;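 note: the screen sought inhibitors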
Details: purified enzyme, resorufin glucoside fluorescence (screen aimed at inhibitors), 20 min; series mostly up to 77 µM
Summary of the method: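 Compounds titrated against 0.2 nM normal enzyme, 30 uM resorufin beta-D-glucopyranoside substrate, citrate/phosphate buffer with taurocholate and tween-20, pH 5.9. Reaction ran 20 min at room temperature; fluorescence (Ex 548/Em 600) gave AC50.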
Potency is the fitted concentration of half-maximal effect.

Sequence of UniProt P04062 (P04062 whole entry, looked up): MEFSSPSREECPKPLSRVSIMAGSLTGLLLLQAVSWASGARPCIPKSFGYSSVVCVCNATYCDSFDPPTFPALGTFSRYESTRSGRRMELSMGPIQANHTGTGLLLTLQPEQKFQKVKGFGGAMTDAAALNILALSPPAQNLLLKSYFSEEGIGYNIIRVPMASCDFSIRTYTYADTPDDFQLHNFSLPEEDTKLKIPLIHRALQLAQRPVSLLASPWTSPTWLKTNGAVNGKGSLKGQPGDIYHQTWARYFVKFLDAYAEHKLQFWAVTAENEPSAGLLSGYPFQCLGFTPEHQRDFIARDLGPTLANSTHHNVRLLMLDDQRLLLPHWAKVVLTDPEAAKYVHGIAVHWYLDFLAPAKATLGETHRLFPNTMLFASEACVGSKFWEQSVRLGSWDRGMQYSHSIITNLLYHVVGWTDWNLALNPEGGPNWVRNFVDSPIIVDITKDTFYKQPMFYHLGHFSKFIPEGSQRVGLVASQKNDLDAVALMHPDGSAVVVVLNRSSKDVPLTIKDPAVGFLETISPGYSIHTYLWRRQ

Potency, inactive:
Cn1c(CCCNC(=O)c2ccccc2)nc2ccccc21 > 76.9 µM, CC(C)N(Cc1cc2ccccc2[nH]c1=O)C(=O)C(C)(C)C > 76.9 µM, COC(=O)Cn1ncn2c(cc3oc(C)cc32)c1=O > 76.9 µM, Cc1ccc(N(CN2CCCC2=O)C(=O)c2ccc(C)c(C)c2)cc1 > 76.9 µM, O=C(Nc1ccc(S(=O)(=O)NCc2ccccc2)cc1)Nc1ccc2c(c1)OCO2 > 76.9 µM, O=C(Nc1scc(-c2ccccc2)c1C(=O)O)c1ccco1 > 76.9 µM, Cc1nn(C/C(C#N)=N\O)c(C)[n+]1N > 76.9 µM, CC(C)Oc1ccc(C(=O)N(CN2CCCC2=O)c2ccc(F)cc2)cc1 > 76.9 µM, CC(C)C(OC(=O)c1cccs1)C(=O)NCc1cccs1 (stereo unspecified) > 76.9 µM, O=C(Nc1ccccc1)c1cnc[nH]1 > 76.9 µM, COc1ccc(-c2cc(C(=O)NCc3cccnc3)no2)cc1 > 76.9 µM, CCOc1ccc(NCc2nnc(SCC(=O)Nc3cc(C)on3)n2-c2ccc(OC)cc2)cc1 > 76.9 µM, CC(C)(C)C1CCC(=O)C(C2(O)C(=O)Nc3ccccc32)C1 (stereo unspecified) > 76.9 µM, O=C(COc1ccc(F)cc1Br)N1CCc2ccccc21 > 76.9 µM, O=C(c1cc(-c2cccs2)on1)N1CCOCC1 > 76.9 µM, O=C(c1csc(Nc2ccccc2Cl)n1)N1CCCC1 > 76.9 µM, CCN(CC)C(=O)CSC1=Nc2ccccc2C2=NC(Cc3c[nH]c4ccccc34)C(=O)N12 (stereo unspecified) > 76.9 µM, CC(NCCO)C(=O)C12CC3CC(CC(C3)C1)C2 (stereo unspecified) > 76.9 µM, O=C(c1cc(Cl)cc(Cl)c1)N1CCOCC1 > 76.9 µM, COc1ccc(NC(=O)c2ccco2)cc1NC(=O)c1c(F)c(F)c(OC)c(F)c1F > 76.9 µM, CC(=O)NC(C)c1nc2ccccc2n1Cc1ccccc1F (stereo unspecified) > 76.9 µM, COc1ccc(Cl)cc1-n1c(N)c(C(N)=O)sc1=S > 76.9 µM, CCOC(=O)c1cnc(SCC(=O)Nc2cc(C(F)(F)F)ccc2N2CCOCC2)nc1N > 76.9 µM, Cc1ccc(NC(=O)NC2(C(=O)NCc3ccco3)CCCCC2)cc1 > 76.9 µM, COc1cc(OC)cc(C(=O)NCC(=O)OC2CCOC2=O)c1 (stereo unspecified) > 76.9 µM, CCCc1cc(=O)[nH]c(SCc2ccccc2)n1 > 76.9 µM
